Measured values reported in PubChem BioAssay AID1671188 (National Center for Advancing Translational Sciences (NCATS), 2021).
“And” between values parts separate entries of the source, which are not always exact repeats. Equal entries are not always repeated. Screen size: about 100,000 compounds; about 250 (0.25%) were called active. The inconclusive results got no clear call from the source; some entries with a clear call stand among them for comparison. Calls follow the shape of the dose curve; as a rule, active = well fitted inhibition curve with a large enough effect; inconclusive = small, poorly fitted or top-dose-only effect; inactive = flat fitted curve, though single readings scatter. Where the call is inconclusive, the potency comes from a doubtful curve fit.

Each compound was assayed against Alanine aminotransferase 2 (Homo sapiens) (UniProt Q8TD30) (assay: Primary qHTS assay for inhibitors of Glutamate pyruvate transaminase 2 (GPT2)). Details: Recombinant GPT2, coupled pyruvate oxidase/HRP Amplex Red fluorescence; activity change, negative = inhibition: at 57.7 µM (top of the series) unless noted; series mostly up to 57.7 µM.
Procedure, shortened: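 Recombinant GPT2 (10ng/uL) with 250uM a-KG and 2mM L-alanine, 30 min at room temperature, in HEPES pH 7.5 buffer. Pyruvate detected by pyruvate oxidase/HRP/Amplex Red fluorescence after 30 min in the dark; AOA (50uM) as positive control.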
% is scaled to controls: 0 for no effect and ±100 for the full control effect; potency is read from the fitted curve at half-maximal effect; tags tell the direction and shape of the fitted curve.
Also: nearly all actives have a fitted effect of over 60% in size.

Sequence of UniProt Q8TD30 (Q8TD30 whole entry, looked up): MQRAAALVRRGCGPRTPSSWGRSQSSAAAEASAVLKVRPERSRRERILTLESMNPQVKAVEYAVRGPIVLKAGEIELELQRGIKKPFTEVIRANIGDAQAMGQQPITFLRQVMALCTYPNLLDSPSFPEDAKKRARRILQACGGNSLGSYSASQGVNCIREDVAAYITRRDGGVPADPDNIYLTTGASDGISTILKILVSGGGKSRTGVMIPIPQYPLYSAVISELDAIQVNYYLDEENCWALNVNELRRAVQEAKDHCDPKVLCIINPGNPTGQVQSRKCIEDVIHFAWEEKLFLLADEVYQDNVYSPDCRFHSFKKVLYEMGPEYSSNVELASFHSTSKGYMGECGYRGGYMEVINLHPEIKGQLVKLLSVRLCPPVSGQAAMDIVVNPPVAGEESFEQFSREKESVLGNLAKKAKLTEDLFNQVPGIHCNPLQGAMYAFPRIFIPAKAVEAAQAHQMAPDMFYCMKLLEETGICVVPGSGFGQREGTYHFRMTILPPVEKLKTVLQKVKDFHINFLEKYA

SMILES | Potency | activity change, negative = inhibition
COc1ccc(Cl)cc1-c1ccc2c(c1)C(=O)N1CCN(C(=O)c3ccccc3)C[C@@H]1C(=O)N2 | inconclusive: 39.8 µM [inhibitor, partial curve, poor fit] | 
O=C(C1CCCCc2nnc(-c3ccccc3)n21)N1CCCC1 (stereo unspecified) | inactive | 
COCc1nc(CCNC(=O)C2CC(=O)N(c3ccc(F)c(Cl)c3)C2)no1 (stereo unspecified) | inconclusive: 2.24 µM [inhibitor, full curve, poor fit] | 
O=C(N[C@H]1CCOC[C@H]1C1CCOCC1)c1cncs1 | inconclusive: 4.47 µM [inhibitor, full curve, poor fit] | 
Cc1ccc2c(C)c(C(=O)N(C)CCOc3ccccc3)oc2c1C | inconclusive: 39.8 µM [inhibitor, single point] | 
Nc1ccn([C@@H]2C(F)=C(CO)[C@@H](O)[C@H]2O)c(=O)n1 | inconclusive: 10.8 µM [inhibitor, single point] | 
COc1ccccc1-n1c(=O)c(C(=O)NCC(F)(F)F)nc2cccnc21 | inconclusive: 39.8 µM [inhibitor, single point] | 
CCCC(=O)OC[C@@H](OC(=O)CCC)[C@@H](OC(=O)CCC)[C@H](Cn1c2nc(=O)[nH]c(=O)c-2nc2cc(C)c(C)cc21)OC(=O)CCC | inconclusive: 39.8 µM [inhibitor, single point] | 
CC(=O)Nc1ccc(C(=O)NC2CCN(c3cc(-c4cccs4)[nH]n3)C2)cc1 (stereo unspecified) | inconclusive: 10 µM [inhibitor, partial curve] | 
C=CCNC(=O)N1CC[C@H]2CC(=O)N(c3ccccc3)CC[C@H]2C1 | inconclusive: 10 µM [inhibitor, single point] | 
CN(C)C(=O)c1cc(-c2cccnc2)nc2c1cnn2C | inactive | 
Nc1nc(C2CC(N)C2)cc(N2CCCN(Cc3cccs3)CC2)n1 (stereo unspecified) | inconclusive: 7.94 µM [inhibitor, partial curve] | 
CC(C)n1cc(C(=O)N2C[C@@H](CN3CCOCC3)[C@@H](CO)C2)cn1 | inconclusive: 39.8 µM [inhibitor, single point] | 
COc1ccc(N2CCN(c3nc(C(=O)NCc4ccco4)cs3)CC2)cc1 | inconclusive: 31.6 µM [inhibitor, single point] | 
Cc1ccc(C)c(C(=O)N2CC(c3nnc(-c4ccncc4)o3)C3(CCOCC3)C2)c1 (stereo unspecified) | inconclusive: 2.82 µM [inhibitor, full curve, poor fit] | 
CNC[C@H](O)c1ccc(O)c(O)c1 | inconclusive: 11.2 µM [inhibitor, partial curve, poor fit] and active: 12.5 µM and active: 14.1 µM | 
CCc1ccc(C(=O)NC2CCN(c3cc(-c4cccs4)[nH]n3)C2)cc1 (stereo unspecified) | inconclusive: 35.5 µM [inhibitor, single point] | 
c1ccc(CCCc2noc(-c3ccc(N4CCOCC4)nc3)n2)cc1 | inactive | 
CCNC(=O)N1CCc2cc(OC)c(OC)cc2C1CNC(=O)c1ccccc1C (stereo unspecified) | inactive | 
COc1ccc(-c2noc([C@@H]3CCCN3C(=O)c3ccc(C)cc3)n2)cc1OC | inactive | 
CC(C)n1nc(OC(C)(C)C(=O)NC2CCC(O)CC2)c2cc(CN3CCOCC3)ccc21 (stereo unspecified) | inconclusive: 5.01 µM [inhibitor, full curve, poor fit] | 
Cc1ccccc1-c1ccc2c(n1)CN(Cc1ccccc1)C(=O)CO2 | inconclusive: 12.6 µM [inhibitor, single point] | 

SMILES | Potency | activity change, negative = inhibition
CC(=O)Nc1ccc(C(=O)NC2CCN(c3cc(-c4ccc(F)cc4)[nH]n3)C2)cc1 (stereo unspecified) | inconclusive: 11.2 µM [inhibitor, partial curve] | 
Cc1ccc(C2Cn3cnc(C(=O)N4CCC(C(=O)NC(C)c5ccccc5)CC4)c3CO2)cc1 (stereo unspecified) | inactive | 
CN1CC(=O)N(C2CCCCC2)Cc2c(NCCO)ncnc21 | inconclusive: 56.2 µM [inhibitor, single point] | 
NC(=O)c1cccc2cn(-c3ccc([C@@H]4CCCNC4)cc3)nc12 | inconclusive: 15.3 µM [inhibitor, single point] | 
COc1ccc(Nc2cnc3ccc(-c4ccc(F)cc4)nn23)cn1 | inconclusive: 7.94 µM [inhibitor, full curve] | 
Cc1onc(-c2ccccc2Cl)c1-c1nc(C2CCOC2)no1 (stereo unspecified) | inactive | 
CN(C)CCNC(=O)C(C)(C)Oc1nn(CCOc2ccccc2)c2ccccc12 | inactive | 
CCCS(=O)(=O)N1CCC(F)(c2nc(CCOC)no2)CC1 | inconclusive: 39.8 µM [inhibitor, single point] | 
N#Cc1cccc(-c2c[nH]c3ncnc(N4CCOCC4)c23)c1 | inconclusive: 7.08 µM [inhibitor, single point] | 
C=CC1(C)CC2CCC3C(C)(C(=O)O)CCCC3(C)C2=CC1=O (stereo unspecified) | inconclusive: 4.47 µM [inhibitor, full curve] | 
CCC1(N2CCN(S(=O)(=O)c3ccc(F)c(C)c3)CC2)CCN(C(=O)NC)C1 (stereo unspecified) | inactive | 
CN(C)C(=O)c1nc(-c2cccc(C(F)(F)F)c2)c2ccccn12 | inactive | 
CC(=O)C1=C(O)C=C2Oc3c(C(C)=O)c(O)c(C)c(O)c3[C@]2(C)C1=O | inconclusive: 39.8 µM [inhibitor, single point] | 
O=C(NC1CCCC1)c1cc(-c2cccc(C(F)(F)F)c2)c2cccn2n1 | inactive | 
Cc1nc2ccccc2n1Cc1cc(C(=O)N2CCN(C)C(=O)[C@@H]2C)n[nH]1 | inconclusive: 8.91 µM [inhibitor, single point] | 
O=C(CCc1ccc(O)cc1)c1c(O)cc(O)cc1O | active: 6.85 µM and inconclusive: 1.12 µM [inhibitor, full curve, poor fit] | 
COc1ccccc1Nc1ccnc(N2CCCC(C(=O)NCC3CC3)C2)n1 (stereo unspecified) | inactive | 
COc1ccc(NC(=O)N2c3ccccc3CC2c2nc(C(C)C)no2)c(OC)c1 (stereo unspecified) | inactive | 
O=C1CC(c2noc(Cc3ccc(Cl)cc3)n2)CN1C1CCCCC1 (stereo unspecified) | inconclusive: 7.08 µM [inhibitor, single point] | 
CSc1ccc(-c2cccc(C(=O)NCC(=O)NCC(F)F)c2)cc1 | inconclusive: 39.8 µM [inhibitor, single point] | 
Cc1cc(Cl)ccc1OCC(=O)N1CCC(c2n[nH]c(=O)n2-c2ccccc2)CC1 | inactive | 
CN(Cc1ccc2nccnc2c1)C(=O)c1cc(COc2ccc(F)cc2F)on1 | inconclusive: 7.94 µM [inhibitor, full curve] | 

SMILES | Potency | activity change, negative = inhibition
CC1(c2ccccc2)N(Cc2ccc(O)cc2)C(=O)OC12CCN(C(=O)c1cccnc1)CC2 (stereo unspecified) | inactive | 
Cc1ccc(NC(=O)N2CCCC(c3nccn3Cc3ccncc3)C2)cc1C (stereo unspecified) | inconclusive: 5.62 µM [inhibitor, single point] | 
Cc1ccccc1CCC1CCCN(C(=O)CCc2cnn(C)c2)C1 (stereo unspecified) | inconclusive: 10 µM [inhibitor, partial curve, poor fit] | 
NC(Cc1ccccc1)C(=O)N1CCC2(CC1)CN(C(=O)c1ccc(Cl)cc1)CCO2 (stereo unspecified) | inconclusive: 28.2 µM [inhibitor, single point] | 
CN(C)CCN(C)C(=O)c1ccc(NC(=O)Nc2ccc(-c3nc(N4CCOCC4)c4ccn(CC(F)(F)F)c4n3)cc2)cc1 |  | inconclusive: -32.7% [inhibitor]
COc1ccc(NC(=O)c2cc(-c3ccc[nH]3)n[nH]2)cc1 | inactive | 
COCCN1CCCN(C(=O)c2cccc(F)c2)c2ccccc21 | inactive | 
CC(C)n1cc2cc(C(=O)Nc3ccc4c(c3)OCCO4)sc2c1 | inactive | 
Cc1ccc(-c2cc(N3CCCN(C(=O)Cc4cccs4)CC3)n[nH]2)cc1C | inconclusive: 39.8 µM [inhibitor, single point] | 
Cc1ccc2[nH]c(CCn3cc(-c4cncnc4)nn3)nc2c1C | inconclusive: 5.01 µM [inhibitor, single point] | 
O=C(Nc1ccccc1-c1cn2c(CN3CCNCC3)csc2n1)c1cnc2ccccc2n1 | inconclusive: 43.2 µM [inhibitor, single point] | 
CCOc1cc(C(=O)N2CCC[C@H]2c2nc(-c3ccc(F)cc3)no2)cc(OCC)c1OCC | inconclusive: 6.31 µM [inhibitor, single point] | 
O=C(NC1CCN(c2ccnc3ccnn23)CC1)c1cncc(Br)c1 | inactive | 
O=C(Nc1ccccc1)C1CCN(C(=O)c2ncn3c2COC(c2ccccc2)C3)CC1 (stereo unspecified) | inactive | 
C/C=C1\[C@H](O[C@@H]2O[C@H](CO)[C@@H](O)[C@H](O)[C@H]2O)OC=C(C(=O)OC)[C@H]1CC(=O)O | inconclusive: 3.98 µM [inhibitor, single point] | 
O=C(NCCCN1CCc2ccccc2C1)C1CCc2ncc(-c3ccc(F)cc3)n2C1 (stereo unspecified) | inactive | 
Cc1nc(N2CCC(NC(=O)c3ccccc3Cl)CC2)cc(C(F)(F)F)n1 | inactive | 
O=C(c1cccc2cnccc12)N1CCC2(CC1)Nc1ccccc1NC2=O | inconclusive: 25.1 µM [inhibitor, single point] | 
COc1ccc(-c2nn(-c3ccc(C)cc3C)c(OC(C)=O)c2-c2ccc(NC(C)=O)cc2)c(OC)c1 | inconclusive: 3.55 µM [inhibitor, full curve, poor fit] | 
COCC1CN(C2CCC2)CC12CCN(C(=O)c1ccc(OC)cc1)CC2 (stereo unspecified) | inactive | 
O=C1Cc2c(-c3cc4ccccc4o3)n[nH]c2CN1Cc1ccccc1 | inactive | 
COc1ccc2cc(CN3CCC(N(C)C)C3)c(-c3cccc(C)c3)nc2c1 (stereo unspecified) | inconclusive: 35.5 µM [inhibitor, single point] | 
